Results: the supplement of paper PMC4967469
The IC50 comes from the fitted curve, where viability falls to half of the control; a fit beyond the top or the lowest dose is shown as a bound at that dose. AUC is the area under the same curve over the 256-fold range up to the top dose, as a fraction: 1 means no effect, lower means more sensitive. For some assays here: A top dose marked as inferred comes from the curve model; the source does not state it. For some assays here: An entry number marks a drug with two screens in the source, which often give different values.

Tests used:
Assay in all cases: Viability of human cancer cell lines after 72 h of drug (GDSC screen)
[1] = compound: CC1(C)CC(=O)c2c(C(F)(F)F)nn(-c3ccc(C(N)=O)c(N[C@H]4CC[C@H](O)CC4)c3)c2C1 [SNX-2112]; settings: top dose 2.56 µM
Description: (§1)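 Human cancer cell lines in 384-well plates, medium with 10% serum, drug for 72 h over a 256-fold dose range (nine 2-fold or five 4-fold steps up to the top dose). Adherent lines were fixed and stained with the nucleic acid dye Syto60, suspension lines read with resazurin; signal relative to control wells, capped at 0 and 100%. One two-parameter sigmoid per drug and line, fitted in a mixed model over all curves with the slope shared within a line.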

[2] = compound: CN(C)C/C=C/C(=O)Nc1cc2c(Nc3ccc(F)c(Cl)c3)ncnc2cc1O[C@H]1CCOC1 [Afatinib]
Description: as §1

[3] = compound: O=C(NC1CC1)c1cccc(-c2ccc3c(NC(=O)C4CC4)n[nH]c3c2)c1 [XMD13-2]; settings: top dose 10.24 µM; top dose inferred
Description: as §1

[4] = compound: CN(c1ncccc1CNc1nc(Nc2ccc3c(c2)CC(=O)N3)ncc1C(F)(F)F)S(C)(=O)=O [PF-562271]; settings: top dose 2.56 µM; top dose inferred
Description: as §1

[5] = compound: CC[C@]1(O)C[C@@H]2CN(CCc3c([nH]c4ccccc34)[C@@](C(=O)OC)(c3cc4c(cc3OC)N(C)[C@H]3[C@@](O)(C(=O)OC)[C@H](OC(C)=O)[C@]5(CC)C=CCN6CC[C@]43[C@@H]65)C2)C1 [Vinblastine]; settings: top dose 0.1 µM; top dose inferred
Description: as §1

[6] = top dose 0.5 µM, screen: GDSC drug entry 1032
[7] = top dose 10 µM, screen: GDSC drug entry 1377, top dose inferred

Cell Line	AUC [1]	IC50 [1]	AUC [2, 6]	IC50 [2, 6]	AUC [2, 7]	IC50 [2, 7]	AUC [3]	IC50 [3]	AUC [4]	IC50 [4]	AUC [5]	IC50 [5]
VA-ES-BJ (soft tissue, adherent)	0.867	2540 nM	0.984	> 500 nM	0.976	> 10000 nM	0.962	> 10200 nM	0.841	1930 nM	0.429	3.95 nM
CA46 (Burkitt lymphoma, suspension)	0.324	49.7 nM	0.985	> 500 nM	0.954	> 10000 nM	0.911	> 10200 nM	0.917	> 2560 nM	0.787	46.9 nM
ME-1 (acute myeloid leukaemia, suspension)	0.764	993 nM	0.988	> 500 nM	0.987	> 10000 nM	0.986	> 10200 nM	0.988	> 2560 nM	0.943	> 100 nM
LU-165 (small cell lung carcinoma, suspension)	0.737	839 nM	0.988	> 500 nM	0.968	> 10000 nM	0.979	> 10200 nM	0.969	> 2560 nM	0.988	> 100 nM
RXF393 (kidney, adherent)	0.478	136 nM	0.97	> 500 nM	0.914	> 10000 nM	0.812	8360 nM	0.859	> 2560 nM	0.384	2.65 nM
Raji (Burkitt lymphoma, suspension)	0.565	237 nM	0.925	> 500 nM	0.988	> 10000 nM	0.968	> 10200 nM	0.967	> 2560 nM	0.765	34.2 nM
NB12 (neuroblastoma, adherent)	0.836	> 2560 nM	0.972	> 500 nM	0.466	489 nM	0.942	> 10200 nM	0.966	> 2560 nM	0.748	42.2 nM
BICR22 (head and neck, adherent)	0.679	549 nM	0.849	466 nM	0.781	4800 nM	0.968	> 10200 nM	0.92	> 2560 nM	0.397	3.11 nM
M059J (glioma, adherent)	0.439	108 nM	0.982	> 500 nM	0.982	> 10000 nM	0.887	> 10200 nM	0.904	> 2560 nM	0.634	
CHP-126 (neuroblastoma, suspension)	0.87	2500 nM	0.987	> 500 nM	0.986	> 10000 nM	0.965	> 10200 nM	0.945	> 2560 nM	0.723	27.3 nM
LK-2 (lung squamous cell carcinoma, adherent)	0.849	1750 nM	0.976	> 500 nM	0.975	> 10000 nM	0.811	5040 nM	0.937	> 2560 nM	0.472	5.27 nM
COLO-783 (melanoma, adherent)	0.918	> 2560 nM	0.991	> 500 nM	0.975	> 10000 nM	0.983	> 10200 nM	0.988	> 2560 nM	0.672	18.4 nM
RKO (large intestine, adherent)	0.258	34.5 nM	0.977	> 500 nM	0.986	> 10000 nM	0.857	7350 nM	0.891	> 2560 nM	0.495	6.06 nM
SK-MEL-1 (melanoma, suspension)	0.943	> 2560 nM	0.993	> 500 nM	0.986	> 10000 nM	0.986	> 10200 nM	0.993	> 2560 nM	0.957	> 100 nM
NCI-H1869 (lung squamous cell carcinoma, adherent)	0.88	> 2560 nM	0.923	> 500 nM	0.915	> 10000 nM	0.976	> 10200 nM	0.95	> 2560 nM	0.809	60.8 nM
OCI-AML2 (acute myeloid leukaemia, suspension)	0.089	12.9 nM	0.995	> 500 nM	0.99	> 10000 nM	0.963	> 10200 nM	0.957	> 2560 nM	0.68	17.2 nM
U-87-MG (glioma, adherent)	0.6	316 nM	0.924	> 500 nM	0.419	361 nM	0.98	> 10200 nM	0.969	> 2560 nM	0.704	26.2 nM
DMS-273 (small cell lung carcinoma, adherent)	0.562	238 nM	0.972	> 500 nM			0.745	3380 nM	0.85	2110 nM	0.444	4.34 nM
NALM-6 (B-cell leukaemia, suspension)	0.171	20.4 nM	0.99	> 500 nM	0.968	> 10000 nM	0.815	4510 nM	0.853	1510 nM	0.369	2.9 nM
no-10 (glioma, adherent)	0.935	> 2560 nM	0.964	> 500 nM	0.94	> 10000 nM	0.958	> 10200 nM	0.811	1760 nM	0.874	> 100 nM
NCI-H1836 (small cell lung carcinoma, suspension)	0.892	> 2560 nM	0.988	> 500 nM	0.961	> 10000 nM	0.901	> 10200 nM	0.961	> 2560 nM	0.973	> 100 nM
NCI-H747 (large intestine, adherent)	0.574	266 nM	0.938	> 500 nM	0.729	3290 nM	0.917	> 10200 nM	0.892	> 2560 nM	0.848	> 100 nM

Cell Line	AUC [1]	IC50 [1]	AUC [2, 6]	IC50 [2, 6]	AUC [2, 7]	IC50 [2, 7]	AUC [3]	IC50 [3]	AUC [4]	IC50 [4]	AUC [5]	IC50 [5]
CL-11 (large intestine, adherent)	0.951	> 2560 nM	0.982	> 500 nM	0.986	> 10000 nM	0.968	> 10200 nM	0.976	> 2560 nM	0.93	> 100 nM
SW954 (urogenital system, adherent)	0.281	38 nM	0.846	373 nM	0.82	5850 nM	0.855	8280 nM	0.83	1630 nM	0.529	7.52 nM
JiyoyeP-2003 (Burkitt lymphoma, suspension)	0.46	126 nM	0.991	> 500 nM	0.979	> 10000 nM	0.958	> 10200 nM	0.956	> 2560 nM	0.59	10.7 nM
NCI-H716 (large intestine, suspension)	0.492	151 nM	0.979	> 500 nM	0.972	> 10000 nM	0.921	> 10200 nM	0.962	> 2560 nM	0.489	5.78 nM
LP-1 (myeloma, suspension)	0.84	1350 nM	0.993	> 500 nM	0.988	> 10000 nM	0.908	9960 nM	0.987	> 2560 nM	0.935	> 100 nM
UACC-257 (melanoma, adherent)	0.835	2310 nM	0.981	> 500 nM	0.944	> 10000 nM	0.921	> 10200 nM	0.93	> 2560 nM	0.797	61 nM
JVM-2 (lymphoid neoplasm, suspension)	0.648	454 nM	0.981	> 500 nM	0.927	> 10000 nM	0.956	> 10200 nM	0.961	> 2560 nM	0.536	8.04 nM
RH-1 (rhabdomyosarcoma, adherent)	0.252	36.1 nM	0.991	> 500 nM	0.971	> 10000 nM	0.882	7800 nM	0.934	> 2560 nM	0.436	4.32 nM
NCI-H187 (small cell lung carcinoma, suspension)	0.659	460 nM	0.988	> 500 nM	0.985	> 10000 nM	0.932	> 10200 nM	0.976	> 2560 nM	0.804	55.2 nM
NEC8 (testis, adherent)	0.315	53.2 nM	0.979	> 500 nM			0.963	> 10200 nM	0.924	> 2560 nM	0.441	4.42 nM
LB771-HNC (head and neck, adherent)	0.783	1370 nM	0.982	> 500 nM	0.931	> 10000 nM	0.968	> 10200 nM	0.872	> 2560 nM	0.556	9.24 nM
MOLP-8 (myeloma, suspension)	0.244	30.4 nM	0.984	> 500 nM	0.977	> 10000 nM	0.712	2470 nM	0.83	1520 nM	0.732	27.9 nM
SUP-B15 (lymphoblastic leukaemia, suspension)	0.432	105 nM	0.986	> 500 nM			0.833	6220 nM	0.893	> 2560 nM	0.547	8.35 nM
ES6 (Ewing sarcoma, adherent)	0.53	197 nM	0.982	> 500 nM	0.953	> 10000 nM	0.943	> 10200 nM	0.926	> 2560 nM	0.827	81.8 nM
647-V (bladder, adherent)	0.802	1270 nM	0.951	> 500 nM	0.932	> 10000 nM	0.968	> 10200 nM	0.916	> 2560 nM	0.693	21.8 nM
LOUCY (T-cell lymphoblastic leukaemia, suspension)	0.18	22.5 nM	0.992	> 500 nM	0.969	> 10000 nM	0.866	6500 nM	0.773	820 nM	0.546	8.15 nM
LB2518-MEL (melanoma, adherent)	0.513	174 nM	0.985	> 500 nM	0.986	> 10000 nM	0.987	> 10200 nM	0.939	> 2560 nM	0.831	68 nM
DSH1 (bladder, adherent)	0.262	34.7 nM	0.536	39.1 nM	0.562	916 nM	0.986	> 10200 nM	0.962	> 2560 nM	0.698	21.9 nM
SW780 (bladder, adherent)	0.969	> 2560 nM	0.973	> 500 nM	0.887	> 10000 nM	0.973	> 10200 nM	0.879	> 2560 nM	0.385	2.93 nM
Caov-4 (ovary, adherent)	0.974	> 2560 nM	0.98	> 500 nM	0.944	> 10000 nM	0.975	> 10200 nM	0.979	> 2560 nM	0.937	> 100 nM
JJN-3 (haematopoietic neoplasm, suspension)	0.343	64 nM	0.984	> 500 nM	0.977	> 10000 nM	0.743	2700 nM	0.933	> 2560 nM	0.237	1.3 nM
